According to PubChem BioAssay AID624296 (National Center for Advancing Translational Sciences (NCATS), 2012):
Hit rate of the full screen: of about 350,000 compounds, about 9,900 (2.8%) were called active. The inconclusive results got no clear call from the source; some entries with a clear call stand among them for comparison. The call rests on the fitted dose curve; in most records, active means well fitted activation curve with a large enough effect; inconclusive means small, poorly fitted or top-dose-only effect; inactive means no such curve, though single readings can be large or run the other way. No potency is given beside an inconclusive call; the fits are too rough.

Experiment: A quantitative high throughput screen for small molecules that induce DNA re-replication in MCF 10a normal breast cells. Further: nearly all actives have a fitted effect of over 50% in size. On activity, positive = re-replication: % of control where 0% means no effect.
Conditions: MCF 10A DNA re-replication, Hoechst nuclear intensity, 48 h; activity, positive = re-replication: at 46.1 µM (top of the series)
Potency means the concentration at half of the fitted maximal effect; tags describe the fitted curve by direction and shape.

| Compound | Potency | activity, positive = re-replication |
| --- | --- | --- |
| COc1cc(OC)cc(-c2nnc(NC(=O)CCS(=O)(=O)c3ccccc3)o2)c1 | inconclusive [activator, single point] |  |
| CC(=O)N1c2ccc(S(=O)(=O)N(C)c3cc(C)ccc3C)cc2CC1C (stereo unspecified) | inconclusive [activator, single point] |  |
| CCc1ccc(C(=O)NNc2ccc(F)cc2)cc1 | inconclusive [activator, single point] |  |
| Cn1cc(CNC(=O)c2sc3cccc(Cl)c3c2Cl)cn1 | inconclusive [activator, partial curve, poor fit] |  |
| CSCCC(NC(=O)c1ccc(Cl)cc1Cl)C(=O)N1CCCCCCC1 (stereo unspecified) |  | inactive: 14.3% |
| COc1ccc(C(=O)Nc2cc(OC)ccc2OC)cc1 |  | inactive: -0.383% |
| O=C(N/N=C/C=C/c1ccccc1)c1cccc(Br)c1 | inconclusive [activator, partial curve, poor fit] |  |
| CC(C)Oc1ccc(C(CC(=O)O)n2cnnn2)cc1 (stereo unspecified) | inconclusive [activator, single point] |  |
| O=C(C1CCCN(c2ncnc3c2nc2n3CCCCC2)C1)N1CCN(c2cccc(Cl)c2)CC1 (stereo unspecified) | inconclusive [activator, single point] |  |
| Cc1nnc(-c2cccc(Br)c2)c2cn(-c3ccccc3)nc12 | inconclusive [activator, partial curve, poor fit] |  |
| O=C(NC(Cc1ccccc1)c1nc2ccccc2[nH]1)c1ccc(Cl)c([N+](=O)[O-])c1 (stereo unspecified) | inconclusive [activator, single point] |  |
| CCc1ccc2[nH]c(=O)c(CN(CCCN3CCOCC3)C(=O)Nc3ccc(Cl)cc3)cc2c1 | inconclusive [activator, single point] |  |
| OC(CN1CCCCC1)Cn1c2ccc(Cl)cc2c2cc(Cl)ccc21 (stereo unspecified) | inconclusive [activator, single point] |  |
| COCCNC(=O)NC(=O)COC(=O)c1cccn1C | inconclusive [activator, single point] |  |
| Clc1cccc(-c2nc(NCC3CCCO3)c3ccccc3n2)c1 (stereo unspecified) | inconclusive [activator, single point] |  |
| CCOC(=O)C1=C(C)N=c2s/c(=C\c3ccc(OC(C)=O)c(OCC)c3)c(=O)n2C1/C=C/c1ccccc1 (stereo unspecified) | inconclusive [activator, full curve] |  |
| COC(=O)c1ccc(/C=C/c2c(-c3ccsc3)oc3ccc(N4CCOCC4)cc23)cc1 | active: 5.8 µM |  |
| O=C(CCCN1C(=O)/C(=C/c2ccccc2Cl)SC1=S)N1CCOCC1 | inconclusive [activator, single point] |  |
| COC(=O)N1C(=O)[C@@](Cc2ccccc2)(c2ccccc2)N1C(=O)OC | inconclusive [activator, single point] |  |
| Cc1ccc(-c2noc(CCC(=O)N3CCN(c4cccc(C(F)(F)F)c4)CC3)n2)cc1 | inconclusive [activator, single point] |  |
| CC1CC2=C(NC(=S)NC2c2ccccc2F)/C(=C/c2ccccc2F)C1 (stereo unspecified) | inconclusive [activator, single point] |  |
| O=c1sc(/C=N/Nc2ccccc2)c(Cl)n1Cc1ccccc1 | inconclusive [activator, partial curve, poor fit] |  |

| Compound | Potency | activity, positive = re-replication |
| --- | --- | --- |
| CC1=C(C(=O)OCC(C)C)C(c2cccs2)NC(=S)N1 (stereo unspecified) |  | inactive: 8.31% |
| O=C(CSc1ccc(F)cc1)Nc1cccc(S(=O)(=O)N2CCOCC2)c1 |  | inactive: 2.86% |
| COc1ccc(-c2cc(C(=O)Nc3ccc(Cl)cc3Cl)c3ccccc3n2)cc1OC | inconclusive [activator, partial curve] |  |
| Cc1nc(SCc2nc3c(O)cccc3[nH]2)c2oc3ccccc3c2n1 |  | inactive: 28% |
| Cn1c(C2CCCCC2)nc2cc(N)ccc21 |  | inactive: -8.86% |
| COc1cc2c(cc1OC)CN(CC(=O)Nc1ccccc1SC)CC2 | inconclusive [activator, partial curve, poor fit] |  |
| COc1nc(-c2ccccc2)cc(-c2ccccc2)n1 | inconclusive [activator, single point] |  |
| COc1ccccc1C(=O)Nc1nc(-c2ccc(S(=O)(=O)N3CCOCC3)cc2)cs1 | inconclusive [activator, partial curve, poor fit] |  |
| Clc1ccccc1Cn1nnc2c(N3CCCC3)ncnc21 |  | inactive: 7.71% |
| Cn1nnnc1SCc1ccc(C(=O)Nc2nccs2)cc1 | inconclusive [activator, partial curve, poor fit] |  |
| CC1CC(=O)N(c2ccc(NCCc3ccc(O)cc3)c([N+](=O)[O-])c2)C1=O (stereo unspecified) | inconclusive [activator, full curve, poor fit] |  |
| COCC1CCN(C(=O)c2cc(COc3cc(C)c(Cl)c(C)c3)on2)C1 (stereo unspecified) | inconclusive [activator, partial curve, poor fit] |  |
| Cc1ccc(OCc2nnc(SCC(=O)c3ccccc3)n2-c2ccccc2)cc1 | inconclusive [activator, single point] |  |
| O=C(N/N=C/c1ccc(-c2cccc([N+](=O)[O-])c2)o1)c1ccccc1O | inconclusive [activator, partial curve, poor fit] |  |
| CCN(CC)C(=O)c1sc(NC(=O)c2ccco2)c(C#N)c1C | inconclusive [activator, single point] |  |
| NC(=O)c1cc2ccc(O)cc2oc1=NCc1ccccc1 | inconclusive [activator, full curve] |  |
| Cc1ccc(C)c(CSCc2nc3ccccc3[nH]2)c1 | active: 18.4 µM |  |
| O=c1[nH]cnc2c1ncn2-c1ccc(Cl)cc1 | inconclusive [activator, single point] |  |
| Cc1ccc(SCC(=O)OCC(=O)N(CC(C)C)c2c(N)n(Cc3ccccc3)c(=O)[nH]c2=O)cc1C | inconclusive [activator, single point] |  |
| COc1ccccc1NS(=O)(=O)c1cccc(C(=O)NNC(=O)c2ccc(=O)[nH]c2)c1 | inconclusive [activator, partial curve, poor fit] |  |
| COc1cccc(-c2ccc3nnc(SCC(=O)Nc4ccc(NC(C)=O)cc4)n3n2)c1 | inconclusive [activator, single point] |  |
| Cn1c(=O)c2c(ncn2Cc2ccccc2)n(C)c1=O | inconclusive [activator, single point] |  |

| Compound | Potency | activity, positive = re-replication |
| --- | --- | --- |
| Cc1[nH]n(-c2ccccc2)c(=O)c1N=Nc1cccc([N+](=O)[O-])c1 | inconclusive [activator, single point] |  |
| COc1c2ccccc2nc2ccccc12 | inconclusive [activator, single point] |  |
| Cc1ccc2cc(C#N)c(N3CCCN(S(=O)(=O)c4ccccc4)CC3)nc2c1C | inconclusive [activator, full curve, poor fit] |  |
| CCOC(=O)N1CCN(S(=O)(=O)c2ccc(C(=O)Nc3sc4c(c3C(=O)OC)CCN(C)C4)cc2)CC1 | inconclusive [activator, single point] |  |
| Cc1cc(OCCCCNC(C)C)cc(C(C)C)c1 | inconclusive [activator, single point] |  |
| CC1CCCN(CCCOc2ccc([N+](=O)[O-])cc2)C1 (stereo unspecified) | inconclusive [activator, partial curve] |  |
| C=CCn1c(=O)c(C(=O)NCCN(CC)CC)c(O)c2ccccc21 | inconclusive [activator, full curve, poor fit] |  |
| CCO[C@H]1OC(C(=O)N2CCN(Cc3ccccc3)CC2)=C[C@@H](C2CCCCC2)[C@@H]1CCCO | inconclusive [activator, single point] |  |
| C=CCc1cc(Cl)ccc1OCCOCCN(C)C | inconclusive [activator, single point] |  |
| O=S(=O)(O)c1ccc(O)cc1 |  | inactive: -2.29% |
| O=C(/C=C/c1ccc(OC(F)F)cc1)OCC(=O)N1CCC(c2ccccc2)=N1 |  | inactive: 0% |
| COc1cccc(C2c3cc4c(cc3OC(NNC(N)=O)C2C)OCO4)c1O (stereo unspecified) | active: 3.26 µM |  |
| O=C(CSc1ncccn1)N/N=C/c1cccs1 | active: 0.517 µM |  |
| Nc1c(C(O)(C(F)(F)F)C(F)(F)F)ccc2ccccc12 | inconclusive [activator, single point] |  |
| C=CCn1c(SCc2csc(C)n2)nc2sc3c(c2c1=O)CCCCC3 | inconclusive [activator, partial curve] |  |
| COc1cccc(N(CC(=O)NCCSc2ccc(Cl)cc2)S(C)(=O)=O)c1 |  | inactive: -0.927% |
| c1ccc(-c2nnc(C(c3ccccc3)c3ccccc3)o2)cc1 | inconclusive [activator, single point] |  |
| Cc1ccc(S(=O)(=O)Nc2cc3c4c(c2)CCC(=O)N4CCC3)cc1 | active: 9.2 µM |  |
| Cc1cccc(NC(=O)c2nc[nH]c2C(=O)N[C@@H](CCCCNC(=O)OC(C)(C)C)C(=O)OC(C)(C)C)c1 | inconclusive [activator, single point] |  |
| O=C(NC1CC(=O)N(c2ccc(Cl)cc2)C1)C1CC1 (stereo unspecified) |  | inactive: -2.71% |
| O=C(COc1ccccc1)Nc1ccc2[nH]c(=O)[nH]c2c1 |  | inactive: 0.573% |
| C[C@@H]1CN([C@H](C)CO)C(=O)Cc2cc(NS(=O)(=O)c3ccc(Cl)cc3)ccc2O[C@H]1CN(C)Cc1ccc(C(F)(F)F)cc1 | inconclusive [activator, single point] |  |
